Results from PMC4336329 (PLoS ONE, 2015).
In all, about 310,000 compounds went through this assay and about 2,200 (0.71%) showed an effect of 50% or more. Effects have a minus sign here. Some of the results follow.

Target: human ether-à-go-go-related gene (hERG) potassium channel (human, UniProt Q12809)
Experiment: primary screen, population patch clamp on CHO cells stably expressing hERG

human ether-à-go-go-related gene (hERG) potassium channel, sequence (Q12809 whole entry, looked up): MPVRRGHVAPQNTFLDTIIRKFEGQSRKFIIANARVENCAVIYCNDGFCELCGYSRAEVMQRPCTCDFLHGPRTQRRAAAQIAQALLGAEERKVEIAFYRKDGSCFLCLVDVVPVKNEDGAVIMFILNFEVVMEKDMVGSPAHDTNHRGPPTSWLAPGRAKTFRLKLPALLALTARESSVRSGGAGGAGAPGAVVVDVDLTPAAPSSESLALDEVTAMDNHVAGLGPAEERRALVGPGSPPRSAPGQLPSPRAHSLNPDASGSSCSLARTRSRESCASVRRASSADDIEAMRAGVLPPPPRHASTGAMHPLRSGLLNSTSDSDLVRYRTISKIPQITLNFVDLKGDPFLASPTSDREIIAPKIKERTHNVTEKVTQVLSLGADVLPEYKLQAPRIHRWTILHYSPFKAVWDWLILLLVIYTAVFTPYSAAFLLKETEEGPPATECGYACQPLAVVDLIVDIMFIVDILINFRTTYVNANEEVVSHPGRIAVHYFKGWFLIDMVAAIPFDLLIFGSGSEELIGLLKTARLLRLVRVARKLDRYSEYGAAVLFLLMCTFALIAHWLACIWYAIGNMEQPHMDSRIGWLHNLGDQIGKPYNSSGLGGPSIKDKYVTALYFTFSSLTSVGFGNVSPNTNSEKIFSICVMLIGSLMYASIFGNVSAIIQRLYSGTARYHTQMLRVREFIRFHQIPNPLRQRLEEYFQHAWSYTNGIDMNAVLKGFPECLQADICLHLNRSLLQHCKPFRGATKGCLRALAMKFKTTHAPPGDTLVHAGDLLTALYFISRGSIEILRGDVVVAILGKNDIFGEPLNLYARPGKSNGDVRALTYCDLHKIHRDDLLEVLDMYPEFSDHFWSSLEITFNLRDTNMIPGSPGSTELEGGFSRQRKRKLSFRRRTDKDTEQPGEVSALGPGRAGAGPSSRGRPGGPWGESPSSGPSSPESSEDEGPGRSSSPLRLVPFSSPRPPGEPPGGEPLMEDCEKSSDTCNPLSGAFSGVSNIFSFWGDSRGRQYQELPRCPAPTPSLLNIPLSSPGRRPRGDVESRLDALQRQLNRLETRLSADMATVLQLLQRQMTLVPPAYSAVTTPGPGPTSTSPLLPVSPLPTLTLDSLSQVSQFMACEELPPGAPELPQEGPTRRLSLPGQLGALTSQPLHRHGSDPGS

Structure (SMILES)	hERG current change (%, negative = inhibition) at 1uM [%]
CCCCOC(=O)CSc1nc2c(c(=O)[nH]c(=O)n2C)n1C/C=C(\C)Cl	-0.742
CC(=O)c1cccc(NC(=O)CC2S/C(=N/N=C3CCCCCC3)NC2=O)c1 (stereo not drawn)	12.4
CC(=O)c1ccc(NC(=O)CSc2n[nH]c(-c3cccnc3)n2)cc1	14.1
CCN(c1cccc(C)c1)S(=O)(=O)c1csc(C(N)=O)c1	10.6
O=C(O)CN1C(=O)c2ccc(Oc3cccc4c3C(=O)N(CC(=O)O)C4=O)cc2C1=O	9.7
Cc1nnc(SCc2cccc([N+](=O)[O-])c2)o1	16.3
O=C(O)c1cccc(NC(=O)c2ccc3c(c2)C(=O)N(CC2CCCO2)C3=O)c1 (stereo not drawn)	8.86
O=c1[nH]c(=O)c2ccccc2[nH]1	12.9
CC(C)(C)OC(=O)NCCc1nnc(SCc2ccccc2Cl)o1	-4.46
CC(C)C(=O)c1cc2c(cc1NC(=O)c1ccccc1)OCCO2	12.6
O=C(NCc1ccccc1)N1CCN(c2ccc(Cl)c(Cl)c2)CC1	13.6
Cc1ccc(Cc2nnc3n(-c4cccc(C)c4)nc(C(=O)c4ccccc4)n3c2=O)cc1	7.57
O=C(Nc1nc2ccc(S(=O)(=O)N3CCCC3)cc2s1)c1ccco1	15
COC(=O)c1c(C)[nH]c(C(=O)OCC(=O)N(CC(C)C)c2c(N)n(Cc3ccccc3)c(=O)[nH]c2=O)c1C	-12.9
O=C(CSc1ccccc1C(=O)N1CCCCC1)NCC1CCCCC1	5.8
O=C(O)C(=O)O.Oc1ccccc1CNCCCN1CCOCC1	13.9
COc1ccc(CNC(=S)Nc2cccc(F)c2)cc1	4.7
O=C(CSc1nnc(-c2cccc(S(=O)(=O)N3CCCC3)c2)n1-c1ccccc1)Nc1cccc(C(=O)O)c1	6.66
Cc1cc(C)c2c(N)c3ccccc3nc2n1	-15.5
C/C(=N\NC(=O)Cn1nnc2ccccc21)c1ccco1	8.98
CCC(C)Nc1nc(-c2cccc(OC)c2O)nc2ccccc12 (stereo not drawn)	1.13
COc1ccc(C2C3=C(CC(C)(C)CC3=O)Oc3ncn(CCO)c(=N)c32)cc1OC (stereo not drawn)	-7.71
COC(=O)c1cn(C(=O)c2cc(Br)ccc2Cl)c2ccccc12	15.2

Structure (SMILES)	hERG current change (%, negative = inhibition) at 1uM [%]
COc1ccccc1OCc1nc(Cc2ccc(Cl)cc2)no1	-33.7
CCC(C)NC(=O)C1CCC(=O)N1Cc1ccc(C)cc1 (stereo not drawn)	17.9
Cc1cc(NC(=O)CSc2nnnn2-c2ccccc2)no1	5.76
O=C(Nc1ccccc1)c1cccc(Cn2cc(C(F)(F)F)ccc2=O)c1	9.13
O=C(NN1C(=O)C2C3C=CC(C3)C2C1=O)c1cccc(Cl)c1 (stereo not drawn)	7.15
CSc1ccc(C2=CC(=O)C[C@H](c3ccc(F)cc3)C2)cc1	13.7
Cc1cc(Cl)c2oc(C(=O)N(C)CCc3cnn(C)c3)c(C)c2c1	14.8
Cc1nn(-c2ccccc2)c(C)c1C1C(C#N)=C(N)Oc2n[nH]c(C)c21 (stereo not drawn)	7.64
O=C(Nc1nccs1)c1ccc(COc2ccccc2Br)o1	4.08
O=C(c1ccc(=O)[nH]c1)N(Cc1cccs1)C1(C(=O)NC2CCCC2)CCCCC1	5.07
COc1cccc(/C=C/C(=O)OCC(=O)Nc2ccc(S(=O)(=O)N3CCCC3)cc2)c1	7.4
O=C(COc1ccccc1C(=O)c1cnn(-c2ccccc2)c1)Nc1ccccc1	2.78
O=C(CN1C(=O)NC2(CCOc3ccccc32)C1=O)c1ccc[nH]1 (stereo not drawn)	-1.24
O=C(CCCOC(=O)c1ccc(O)cc1O)c1ccc(F)cc1	-0.497
CCn1c(P(C)(=O)[O-])nc2ccccc21.[Na+]	13.6
COc1ccc(N2C(=O)NC3CC2(C)Oc2ccccc23)cc1OC (stereo not drawn)	4.01
Cn1c(=O)cc(OCCCC(=O)NCCC2=CCCCC2)c2ccccc21	4.79
CCOc1ccc(CCNC(=O)CCn2cccc2)cc1OCC	8.86
Cc1ccccc1C(=O)/C=C1/c2ccccc2CC(C)(C)N1C	-13.3
CC(=O)c1ccc(NC(=O)C(C)OC(=O)C2CCN(c3ccc(C(F)(F)F)cn3)CC2)cc1 (stereo not drawn)	9.25
COc1ccc(NC(=O)CN(C)S(=O)(=O)c2cnc[nH]2)cc1OC	14.3
CC(C)(C)c1nnc2cccc(Cl)n12	4.22
